Test results as given in article PMC7819943, “Rice protein-binding microarrays: a tool to detect cis-acting elements near promoter regions in rice”.
This is one part of the list.

target: T1, OsWOX13 (Oryza sativa, UniProt Q5QMM3 1-267); assay: protein-binding microarray (RPBM); PBS, 2% BSA, 51.3 ng/ul salmon testes DNA, 50 uM zinc acetate, 200 nM TF, 25 C, 1 h; high values mean tight binding; conditions: protein: recombinant; tags: N-terminal polyhistidine and DsRed monomer fusion (pET32a); label: CyDye5-dUTP incorporated in the synthesized complementary strand; 3' TTTTT single-stranded linker to array surface; dsDNA, one strand shown
T1 sequence: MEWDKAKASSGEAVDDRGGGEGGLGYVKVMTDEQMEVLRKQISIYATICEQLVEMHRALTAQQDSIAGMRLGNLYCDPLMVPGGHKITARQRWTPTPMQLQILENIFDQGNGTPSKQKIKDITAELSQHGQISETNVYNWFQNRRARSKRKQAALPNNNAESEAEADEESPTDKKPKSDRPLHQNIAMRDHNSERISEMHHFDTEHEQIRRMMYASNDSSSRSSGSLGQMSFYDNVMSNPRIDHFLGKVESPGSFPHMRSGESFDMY
In short: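 In PBS with 2% BSA, salmon testes DNA and 50 µM zinc acetate, 200 nM protein was incubated on a custom Agilent array at 25 °C for 1 h and then washed off. The array had been made double-stranded by primer extension with Cy5-dUTP and blocked with 2% BSA. The proteins were transcription factors fused N-terminally to polyhistidine and DsRed, expressed in E. coli BL21-CodonPlus and purified on Ni–NTA. The binding signal is per-feature fluorescence intensity (arbitrary units) from an Axon 4000B scanner.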

| Sequence | binding signal |
| --- | --- |
| ACAGATAGATGCACAATTGCGTGACAGTCCATTGTATTCACGGAGTCACCTAGTGCAG | 5420 fluorescence intensity (a.u.) |
| GGGTGCCGCGGGCGGCTAGAGGGCGCCTCTGCGTGGGTGACGGAGTCACCTAGTGCAG | 3530 fluorescence intensity (a.u.) |
| CATATGACCAGTTTAACTGCCATCATGCAGACACACAGGACGGAGTCACCTAGTGCAG | 3410 fluorescence intensity (a.u.) |
| AATAGCTAAAACTTAATTAATCACGCACTGAAACGCGGCTCGGAGTCACCTAGTGCAG | 4280 fluorescence intensity (a.u.) |
| GTTACAATGTAATTACATGTAAGTTACAGTGTAGTTATTCCGGAGTCACCTAGTGCAG | 10200 fluorescence intensity (a.u.) |
| TTATATTAGATTTGTATAGCCTAGATATCTATTCTATCTGCGGAGTCACCTAGTGCAG | 5860 fluorescence intensity (a.u.) |
| CCCGTAAATTTGCGAGCGGGCCATCCCGTATGGACCTTGCCGGAGTCACCTAGTGCAG | 3780 fluorescence intensity (a.u.) |
| GGATAACTTCTGATGATGAATTGTTTGTCTAATTTATCTCCGGAGTCACCTAGTGCAG | 13000 fluorescence intensity (a.u.) |
| ATTAATCATACGCTAATGACTCATCTTATTTTACGTATCTCGGAGTCACCTAGTGCAG | 9100 fluorescence intensity (a.u.) |
| TTTGATCTAATTAGTTGAGTTTGTTGGGTTAATCACTTACCGGAGTCACCTAGTGCAG | 28700 fluorescence intensity (a.u.) |
| TATCTAGATTAGAATTTTCTTAATTTTACAATTGTATGATCGGAGTCACCTAGTGCAG | 21600 fluorescence intensity (a.u.) |
| GACAGCGAGTGACAAATAATTAATTGTAGTAATAATTAATCGGAGTCACCTAGTGCAG | 7980 fluorescence intensity (a.u.) |
| CTATAAATGGAGATGATCAGAGGAAAGGAAACTATGTTTTCGGAGTCACCTAGTGCAG | 3460 fluorescence intensity (a.u.) |
| AATCTATACCTATACTAATTGGACACTTTCTACGAGCTCCCGGAGTCACCTAGTGCAG | 6470 fluorescence intensity (a.u.) |
| CGGATAAATTTAAGACAGCCCAAATATTCCTAAAACGGAGCGGAGTCACCTAGTGCAG | 6940 fluorescence intensity (a.u.) |
| TAGAGATTGAGAATGTTTTCAGTGCAATTGTATCTCCTTGCGGAGTCACCTAGTGCAG | 15900 fluorescence intensity (a.u.) |
| ACCGATTTGTTTGTATTATTTACAATCATTTAGCTACTGCCGGAGTCACCTAGTGCAG | 3800 fluorescence intensity (a.u.) |
| TACGTAACCCTTAATTGGTACACACTTGTTTATATTATTTCGGAGTCACCTAGTGCAG | 11100 fluorescence intensity (a.u.) |
| TAAATAAATTCTTAAATTTAAAATACACAAGAATTTCAAGCGGAGTCACCTAGTGCAG | 4560 fluorescence intensity (a.u.) |
| AGATCAAATCAACTCCATGAATTATGAATCATCATTCATGCGGAGTCACCTAGTGCAG | 8570 fluorescence intensity (a.u.) |
| CTTCGATTGGTTTGTTGGTTTGACTGGAATTCGGATGGATCGGAGTCACCTAGTGCAG | 18200 fluorescence intensity (a.u.) |

| Sequence | binding signal |
| --- | --- |
| CTGCACATGATTTCAATCTACTATGGACATTCTCACTCTCCGGAGTCACCTAGTGCAG | 20000 fluorescence intensity (a.u.) |
| AAAACCTGTGATTAATGCAGTCCTATTACCATCTCAGGCCCGGAGTCACCTAGTGCAG | 7410 fluorescence intensity (a.u.) |
| TACTGCTGGATTGAATTAATGGATCAAGACTGAATTTATCCGGAGTCACCTAGTGCAG | 12100 fluorescence intensity (a.u.) |
| TGCTGGTAAATTATTTCATATATTATTACTCCTAATAAGTCGGAGTCACCTAGTGCAG | 4900 fluorescence intensity (a.u.) |
| TCTCTGCTGATTTACTGATAAGAACATGCTCAATTGTTTCCGGAGTCACCTAGTGCAG | 8670 fluorescence intensity (a.u.) |
| CGCCTTAAATTATCTCTCCTCCTCGCCGCGTTCCTCTCGCCGGAGTCACCTAGTGCAG | 9220 fluorescence intensity (a.u.) |
| CATGCCAGATTGCGATTGAAAGCTGGAAACTACGGCTCAACGGAGTCACCTAGTGCAG | 4240 fluorescence intensity (a.u.) |
| GTAGACAGGTTACATCCAGACCATCACCAGTCACTCAGCTCGGAGTCACCTAGTGCAG | 3290 fluorescence intensity (a.u.) |
| AATCTTTCCAATCAGAACATATACACTCATTACGTTTGCTCGGAGTCACCTAGTGCAG | 8980 fluorescence intensity (a.u.) |
| TCTTTTCAAATTCCTAATCAACGCACCATTTCATATGGATCGGAGTCACCTAGTGCAG | 3150 fluorescence intensity (a.u.) |
| AATTTCTCTTTAATTAACTTTCCTGTCATTTTCTCACCCCCGGAGTCACCTAGTGCAG | 5780 fluorescence intensity (a.u.) |
| ATAATGATAATTTAATTATTAATTTAATAAAACTATTTTGCGGAGTCACCTAGTGCAG | 52100 fluorescence intensity (a.u.) |
| TTTGAAAATTAATTATAAATATTAAACGTAGACTATTAATCGGAGTCACCTAGTGCAG | 9000 fluorescence intensity (a.u.) |
| AACCTTCGCTGTCTCAATCAGAAAACTGCTGTTTCCACCCCGGAGTCACCTAGTGCAG | 5010 fluorescence intensity (a.u.) |
| TTTCTTTTGAAATTGATTACAATCTACATAAGGAGAGTCGCGGAGTCACCTAGTGCAG | 16500 fluorescence intensity (a.u.) |
| CGAATCTGATTAAGGGTGTGTTTAGTTCACGCTAAAATTGCGGAGTCACCTAGTGCAG | 4820 fluorescence intensity (a.u.) |
| AGCAATTAAGCAATCATTACTTCCGTTTCAAAACATAAGCCGGAGTCACCTAGTGCAG | 8040 fluorescence intensity (a.u.) |
| TAAACACTAAATTACTTCCATTAAACCTAGCATTGAATATCGGAGTCACCTAGTGCAG | 6250 fluorescence intensity (a.u.) |
| TGTTAACTCTTAGATTAATTTATAGATAGTGGTTTGCTCTCGGAGTCACCTAGTGCAG | 13400 fluorescence intensity (a.u.) |
| TACTAATCATACACTGATGCGCTTAGAACTAACTTAACCACGGAGTCACCTAGTGCAG | 5730 fluorescence intensity (a.u.) |
| ATCCGTTTTGATTAATGACCTAATCTCCAACTAAACTCCGCGGAGTCACCTAGTGCAG | 7260 fluorescence intensity (a.u.) |
